# Test results: the supplement of paper PMC11417369
# ± gives the standard deviation of the averaged measurements. The list shows a part of the results.
# System: PfAP2-G AP2 domain (GST-tagged)
# Test: gcPBM binding intensity (ln(normalized median fluorescence intensity)); higher = stronger DNA binding
# Procedure, shortened: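 GST-tagged P. falciparum DNA-binding domains, expressed in E. coli (about 25 μg on average), were applied for 1 h to an Agilent 4 × 180k array of primer-extended double-stranded 36-bp intergenic genomic probes plus negative controls. The binding buffer was 1× PBS with 1% milk, 0.2 mg/ml BSA, 0.5% salmon testes DNA and 0.03% Triton X-100. Bound protein was detected with Alexa488 anti-GST antibody and scanned at 488 nm. Binding intensity is the highest Masliner-normalised natural-log median intensity across replicate spots of either probe orientation.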
row,Sequence,gcPBM binding intensity (ln)
1,TTTGTAAAACTATATTGTACTTTTATATATCTACAA [XGTACX_site5507],11.3 ± 0.88
2,ACAACTCGGAAGGTTTGTACTTAAAGTATAATTAAG [XGTACX_site737],11.2 ± 0.54
3,TCATACATGGTGTGTTTGCACTTGACCTATATTCAT,10.18 ± 0.042
4,TCTTGAATAACAAAAAAATGTGCCAACAAAATAAAT [XGTACX_negctrl_site172],10.5 ± 0.33
5,ATAAAAAAATTAAATACATGCACATATACACATACA [TGCATGCA_site129],10.3 ± 0.19
6,GTATATATGTATGTATGTACGTATATAGTTATGTAT [XGTACX_site6769],11.6 ± 0.93
7,TACTGAAATAATTATTTAAACGTTTTTATATGTATT [CACACA_negctrl_site487],9.83 ± 0.042
8,TTTATTTTTTCCAAGTCACACATGTTTTGATATATT [CACACA_site4946],10.06 ± 0.028
9,AGGATACACAGACACACACACATATATATATATATA [CACACA_site907],10.1 ± 0.25
10,TTTTTTTAAAGACATGCATGTAATATTTAAATCATT [TGCATGCA_site495],9.79 ± 0.028
11,ATTAAAAATATAGTCACACATACACCCATATATATT [CACACA_site5394],10.15 ± 0.099
12,TAAATAGATGTTTTATGTACGTATAAATAAAAAAAA [XGTACX_site3412],11.7 ± 0.88
13,ATAATTTTTTGATTTGCATGTAATAAATATATGATA [TGCATGCA_site384],9.88 ± 0.23
14,AATATATTTTTTCACTGTACTTTTATTATATATACA [XGTACX_site8312],11.5 ± 0.92
15,AAAAAAAATGGATGATCACACACTTCATAAAAATTG [CACACA_site2213],10.04 ± 0.092
16,CACATACAGATATATACACACAAATATATATACTCA [CACACA_site4591],10.1 ± 0.17
17,GATTTTTTTTTGTGGACACACAGAAATAAATTTATA [CACACA_site327],11.4 ± 1
18,ATACAACGATATATATATATACAAATACATATTTAT [CACACA_negctrl_site268],9.85 ± 0.085
19,ATATAGGTATTTAATACACACAAAACTTTCATTCCA [CACACA_site7627],10.1 ± 0.15
20,CATGTGCATATTAAATGTACATATATACATATATAC [XGTACX_site857],10.9 ± 0.58
21,AAGGATGATACAACTTGTACATATTTGCTTAATATA [XGTACX_site764],11.1 ± 0.4
22,ATATAAATATATTGCACACACAATTATTATTATTAT [CACACA_site7147],10 ± 0.23
23,TATAATGTTAAATAATGTACATATTTTTTTTTTTTT [XGTACX_site4721],11.1 ± 0.62

row,Sequence,gcPBM binding intensity (ln)
1,ATATAAATCTACACCGCACACAAAAACAACAAATAT [CACACA_site2506],10.3 ± 0.24
2,AAATAAATGAAACACACACACACAAAAAAAAAAAAC [CACACA_site2625],10.2 ± 0.26
3,AAAGCTAATATTATATGTACTTATATATTTATATAT [XGTACX_site4474],11.2 ± 0.79
4,TATATATCAATATGCACACACAAGAAGTAATTATAA [CACACA_site7487],10.04 ± 0.035
5,TAAAAAGTATATAAGAGTACACATATTTATAAATAT [XGTACX_site3084],11.6 ± 0.92
6,AGACTTTGTACAAACACACACATGAGCACAATATTA [CACACA_site6755],11 ± 0.43
7,ACACAATTGAAATAGTGTACAAAATGTTGTTACATA [XGTACX_site8671],11.1 ± 0.57
8,TTATTAACCAAACGCACATGCAAAATATATTATATA [TGCATGCA_site915],10.1 ± 0.23
9,AAATAAATAATATGTAAACACACAAAAAATAAAAAT [CACACA_site8307],10.1 ± 0.18
10,TTTTTTTTTCGGAAAAGTACAAAACTTTTTTATAAT [XGTACX_site4670],11.3 ± 0.93
11,AACAAATTTTTTTTTCCTTTTTTTTTTTTACTTCAT [CACACA_negctrl_site1214],9.58 ± 0.042
12,ATAAACAAAGTTAAATGTACAAAGGGGTAAAAAAAA [XGTACX_site83],10.7 ± 0.43
13,TTTTTTTTTTTCGGGGGTACTAATATATTATTAATA [XGTACX_site7809],11.5 ± 0.93
14,GTTTTTAAGAAAAACACACACTCCTGTTATTTTATA [CACACA_site3696],9.94 ± 0.071
15,TAATAATTAATTAATATAATATTTTTTCATAATTAT [XGTACX_negctrl_site602],9.85 ± 0.18
16,ATAGAAAAAATATACACACACTTATTAAATAAAAAT [CACACA_site7540],9.99 ± 0.071
17,AACAAAATTGAAGGAACACACATACAGATATATATA [CACACA_site4264],10.1 ± 0.2
18,TGAATTAAGATTTATTGTACATAATTTATACCATAT [XGTACX_site7034],11.1 ± 0.6
19,TAAATTTATAGACACACACACATATAAATAAATATA [CACACA_site6530],10.1 ± 0.25
20,TATATAAATAAATATACACACATATATAAATATACA [CACACA_site2982],9.62 ± 0.11
21,TTTTTTTTTTTTTGCACACTTAAATTTGGAGTGTAG [CACACA_site2345],10.1 ± 0.56
22,TTTAATAATAATACTAGTACACATTCTTTATTATTT [XGTACX_site2671],11.3 ± 0.9
23,ATATAATATATATATTGTACATATATTTATAAGCAT [XGTACX_site3726],10.9 ± 0.65

row,Sequence,gcPBM binding intensity (ln)
1,AATGTGCTCGCTATTACACACTCATTGGGATAAACT [CACACA_site7043],10.3 ± 0.23
2,TATATATATATATATTGTACATTTACCAAATTGTGT [XGTACX_site5791],10.9 ± 0.68
3,TAATATATCAAATGAAGTACTCACATATACATAATA [XGTACX_site6051],11.4 ± 0.7
4,GGTATATATTTATAATGTACATATTCATATATATAA [XGTACX_site3291],11 ± 0.57
5,TTTTTTAAATTATGTAGTACGATTCATTTTTTATAA [XGTACX_site1101],11 ± 0.76
6,AAAGTAAAAAATCATAGTACACATTTAAATATATAT [XGTACX_site2323],11.1 ± 0.71
7,ATATATTACGACTTCTGTACATAATATATAAAAGAA [XGTACX_site2353],11 ± 0.72
8,TTTTTTTTTTTTTTTTTTTTTTTGTCTTATTTTTTT [GTGCAC_negctrl_site338],9.69 ± 0.44
9,AAGATTTTCCTTGATAGTACACTTATGAAAATTTGT [XGTACX_site3047],11.2 ± 0.75
10,AATATCTTAGTGGATACACACATATAAATGTGGATT [CACACA_site485],10.2 ± 0.17
11,AATATATTTAATCATACACACATTTATGTACCTATA [CACACA_site1718],11.2 ± 0.84
12,TCGCCCTACAATTTGTTTATATATTAAATAAAATTT [CACACA_negctrl_site883],10.1 ± 0.17
13,TGAAATTCCATAAAATGTACATATTAGTTTAATTCA [XGTACX_site4031],11 ± 0.6
14,ATGTTCTTTAAAACCACACACCCCCCAACCCCCCTC [CACACA_site2373],11.7 ± 1
15,GTCTATTATTTTTGAAGTACAAAAATTTTAGTTAAA [XGTACX_site4708],11.3 ± 0.9
16,CATCATCTTTTAAAGGTGCATAATAATATTGTTAAT,10.1 ± 0.17
17,GGTATACACAGACATGCATGTAATTATATATAGGGA [TGCATGCA_site83],9.88 ± 0.16
18,AAAAATAAATATATATGTACACATATGTATACAATA [XGTACX_site4692],11.6 ± 0.97
19,GAAATAAATATAATATATATATATATATATATATGT [TGCATGCA_negctrl_site216],10.4 ± 0.42
20,TTACAACATGAAAATGTGCACATATATATATATATA,10.3 ± 0.33
21,ATATTTATAAATTGCACACAAATAATAACATTCTAT [CACACA_site2357],9.945 ± 0.007
22,TATTATTATTATGGTAGTACATGTAGGTTATTAAAA [XGTACX_site5742],11.6 ± 1.2
23,AATTGGGAAGGACATGCATGAGAAATTAATATTGCA [TGCATGCA_site424],10.6 ± 0.61

row,Sequence,gcPBM binding intensity (ln)
1,ATATTTTGTTTTTGTTCTTTTTTTTTCTTTTTTTTT [CACACA_negctrl_site1342],9.81 ± 0.057
2,AACATACACATATACACACACACATATATACCTATA [CACACA_site6643],10.2 ± 0.17
3,AAGAAAAAAAAAATTACACACTGCGGACATACACAA [CACACA_site4838],11.1 ± 0.64
4,TCAATTTTACTTGTTTGTACATAAAATAATAAGGTT [XGTACX_site3732],11 ± 0.57
5,ATATCTACTATACAACTGAGTGTAGAAAAATTAAAC [CACACA_negctrl_site1211],10.13 ± 0.071
6,ACTTTGCTCTACAATGCATGCTCATTTAACAAGGCA [TGCATGCA_site676],9.945 ± 0.021
7,TATATTAAATGAAACAAACACACATAGCCTTTAAAT [CACACA_site1559],9.945 ± 0.049
8,AAAAAAAAAAAAAAATGTACATATATATAAATATAT [XGTACX_site6768],11.1 ± 0.72
9,CTATTTTATATGTGCACACATATACTCAGACAAATA [CACACA_site4761],10.6 ± 0.45
10,ACCTATATACTAAATGCACACTTATATATTTATATA [CACACA_site5371],10.11 ± 0.049
11,ATATATATATATATATGTACATATTTTTATTTATAC [XGTACX_site2858],11.3 ± 0.74
12,TATGTAATGTTTACAACACACAAATTATAAATACAA [CACACA_site1771],9.86 ± 0.13
13,TATTTATATGTATATACATGCACATATATATGAAAC [TGCATGCA_site1005],10.1 ± 0.18
14,CATATTACATTAAATTGTACATATATATATATATAT [XGTACX_site3295],10.9 ± 0.55
15,CGGATGAATATATATGCACACATCTTTTGTAAAAAT [CACACA_site3190],9.985 ± 0.078
16,TAATTCGCATTTTATACACACATTCGAACCTTTTTT [CACACA_site7549],9.99 ± 0.17
17,AAATTAATACATTATTGTACTTTTCATGTGCAGAAA [XGTACX_site8284],11.4 ± 0.91
18,TCAATAAATGAATATGCATGCACGCTCTTTAGAGAT [TGCATGCA_site553],10 ± 0.028
19,GAGAAAAAAAAAAAAAAACACACGGTACATTCAAAG [CACACA_site1767],10.35 ± 0.049
20,TGTATAAATATATGCACACATATATATATTTATATA [CACACA_site3473],9.81 ± 0.14
